Some test systems named below: HCC-1143; HCC-1187; MDA-468; SUM-149.
What all share (assay): cell viability relative to vehicle (% of vehicle); basal-like triple-negative breast cancer lines; higher = less cytotoxic
Conditions in all cases: 10 µM; 72 h

These results are taken from the supplement of paper PMC8512760.

The list shows a part of the results. Many values rest on one well or one pass, so single values are uncertain.
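Also: stably firefly luciferase-GFP labeled cells in 96-well plates, viability read as luciferase photon flux after d-luciferin addition, treated wells normalized to vehicle wells, single-dose high-throughput screen.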

For `Cc1nc(Nc2ncc(C(=O)Nc3c(C)cccc3Cl)s2)cc(N2CCN(CCO)CC2)n1`, the cell viability in the experiment with HCC-1143 was determined as 39.5; in the experiment with HCC-1187, 65.8; with MDA-468, 146; in the experiment on SUM-149 it was 40.8.

Take `CCOC(=O)CC(=O)N1CCSC1COc1ccccc1OC` (stereo not given) [Moguisteine]: the cell viability in the experiment on HCC-1143 came to 85.4; in the experiment on HCC-1187, 93.9; in the experiment with MDA-468 it was 110; in the experiment with SUM-149, 109.

`Cc1cc(C)c2c(c1)C(N(Cc1cc(C(F)(F)F)cc(C(F)(F)F)c1)c1nnn(C)n1)CCCN2CC1CCC(C(=O)O)CC1` (stereo not given): the cell viability with HCC-1143 worked out at 108; in the experiment on HCC-1187, 82.4; in the experiment with MDA-468 it was 76.4; with SUM-149, 115.

`CCCCOc1cc(C(=O)OCCN(CC)CC)ccc1N.Cl` [Oxybuprocaine HCl]: the cell viability is 127 in the experiment on HCC-1143, 115 with HCC-1187, 72.3 in the experiment with MDA-468 and 112 in the experiment with SUM-149.

Consider `CCc1ccc(CCOc2ccc(CC3SC(=O)NC3=O)cc2)nc1` (stereo not given) [Pioglitazone], for which the cell viability was found to be 85 with HCC-1143, 101 in the experiment on HCC-1187, 112 in the experiment on MDA-468 and 136 with SUM-149.

For `COCCCN1CCC(NC(=O)c2cc(Cl)c(N)c3c2OCC3)CC1` [Prucalopride], the cell viability with HCC-1143 is 72; in the experiment with HCC-1187, 86.5; in the experiment with MDA-468 it was 105; in the experiment with SUM-149, 101.

Regarding `COc1cc2nc(N3CCN(C(=O)C4CCCO4)CC3)nc(N)c2cc1OC.Cl.O.O` (stereo not given) [Terazosin HCl], the cell viability was 86.3 in the experiment with HCC-1143, 107 in the experiment on HCC-1187, 98.7 in the experiment with MDA-468 and 164 with SUM-149.

As for `CN1C(C(=O)Nc2ccccn2)=C(O)c2ccccc2S1(=O)=O` [Piroxicam], the cell viability in the experiment on HCC-1143 is 74; with HCC-1187, 105; in the experiment with MDA-468, 114; in the experiment with SUM-149, 91.3.

On to `Cl.Cl.Clc1ccc(Nc2nnc(Cc3ccncc3)c3ccccc23)cc1` [Vatalanib (PTK787) 2HCl], for which the cell viability in the experiment on HCC-1143 is 85.7; with HCC-1187, 91.5; with MDA-468, 81.7; in the experiment on SUM-149, 92.4.

`CC(=O)OCC(=O)C1(O)CCC2C3CCC4=CC(=O)CCC4(C)C3C(=O)CC21C` (stereo not given) [Cortisone acetate]: the cell viability in the experiment with HCC-1143 came out at 78.8; with HCC-1187, 79.3; in the experiment with MDA-468 it was 109; in the experiment with SUM-149, 101.
